Patent publication EP4763988A1 (Minghui Pharmaceutical (Hangzhou) Ltd., dated 2025)

Legend:
[1] = target: T1, human CDCP1 endogenously expressed on tumor cells (HCT116, SW480, HT-29, LNCaP) (human, UniProt Q9H5V8 30-836); experiment: cell-based or functional assay
T1 sequence (looked up): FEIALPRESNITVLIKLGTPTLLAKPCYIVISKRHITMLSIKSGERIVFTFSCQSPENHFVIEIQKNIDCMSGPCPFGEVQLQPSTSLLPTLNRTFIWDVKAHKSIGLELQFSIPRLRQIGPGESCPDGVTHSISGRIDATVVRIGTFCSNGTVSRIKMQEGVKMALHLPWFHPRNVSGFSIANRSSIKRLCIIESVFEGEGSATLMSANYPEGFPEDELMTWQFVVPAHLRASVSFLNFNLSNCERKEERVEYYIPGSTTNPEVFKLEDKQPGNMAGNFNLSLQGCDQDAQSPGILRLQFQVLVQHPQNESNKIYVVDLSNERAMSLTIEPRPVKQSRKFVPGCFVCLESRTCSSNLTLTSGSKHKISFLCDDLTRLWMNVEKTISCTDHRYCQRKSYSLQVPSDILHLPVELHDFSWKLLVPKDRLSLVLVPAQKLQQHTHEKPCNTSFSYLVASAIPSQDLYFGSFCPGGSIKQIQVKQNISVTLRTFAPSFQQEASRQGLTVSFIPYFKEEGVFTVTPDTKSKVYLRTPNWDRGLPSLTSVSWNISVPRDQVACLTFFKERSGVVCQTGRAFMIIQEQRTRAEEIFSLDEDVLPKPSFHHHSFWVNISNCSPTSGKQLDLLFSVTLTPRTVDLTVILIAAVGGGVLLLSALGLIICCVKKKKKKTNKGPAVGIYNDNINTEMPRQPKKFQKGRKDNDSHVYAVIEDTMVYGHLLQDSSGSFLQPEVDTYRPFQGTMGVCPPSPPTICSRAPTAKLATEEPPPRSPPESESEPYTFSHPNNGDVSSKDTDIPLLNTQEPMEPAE

[2] = target: T2, Human CDCP1, His Tag (KACTUS, Cat.No. CDC-HM101) (human, UniProt Q9H5V8 30-667, limits assumed); experiment: ELISA, plate-coated CDCP1 His Tag 0.5 ug/mL, four-parameter fit
T2 construct: Bought protein coated on ELISA plates; also called human CDCP1 antigen; CDCP1 antigen; not shown: His tag
T2 sequence (looked up): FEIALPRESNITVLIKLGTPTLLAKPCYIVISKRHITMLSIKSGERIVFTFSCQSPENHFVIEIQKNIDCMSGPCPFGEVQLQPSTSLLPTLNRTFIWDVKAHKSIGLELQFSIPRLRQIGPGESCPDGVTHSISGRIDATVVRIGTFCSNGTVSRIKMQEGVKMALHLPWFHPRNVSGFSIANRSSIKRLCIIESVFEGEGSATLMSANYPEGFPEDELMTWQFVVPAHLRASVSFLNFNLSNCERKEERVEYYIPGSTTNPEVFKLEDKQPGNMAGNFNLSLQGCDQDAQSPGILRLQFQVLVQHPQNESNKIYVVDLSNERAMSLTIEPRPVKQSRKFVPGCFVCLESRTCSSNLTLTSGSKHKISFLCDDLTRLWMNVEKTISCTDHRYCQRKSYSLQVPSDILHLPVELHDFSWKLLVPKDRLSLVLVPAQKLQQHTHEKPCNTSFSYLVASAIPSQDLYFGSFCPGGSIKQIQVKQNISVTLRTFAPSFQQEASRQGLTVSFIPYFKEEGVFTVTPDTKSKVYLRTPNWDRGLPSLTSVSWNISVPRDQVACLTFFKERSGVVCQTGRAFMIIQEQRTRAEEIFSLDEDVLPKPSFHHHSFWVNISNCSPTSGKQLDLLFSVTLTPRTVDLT

[3] = target: T1, human CDCP1 endogenously expressed on …; experiment: flow cytometry on HT-29 cells endogenously expressing human CDCP1
[4] = target: T1, human CDCP1 endogenously expressed on …; experiment: flow cytometry on LNCaP cells endogenously expressing human CDCP1
[5] = target: T1, human CDCP1 endogenously expressed on …; experiment: flow cytometry on SW480 cells endogenously expressing human CDCP1
[6] = target: T1, human CDCP1 endogenously expressed on …; experiment: flow cytometry on HCT116 cells endogenously expressing human CDCP1
[7] = target: T1, human CDCP1 endogenously expressed on …; experiment: as above; remark: listed apart in the source
[8] = target: T2, Human CDCP1, His Tag (KACTUS, Cat.No. …); experiment: ELISA, plate-coated Human CDCP1 His Tag 0.5 ug/mL, four-parameter fit
[9] = target: T3, rhesus monkey CDCP1, His Tag (KACTUS, Cat.No. CDC-CM101) (rhesus monkey, UniProt F6TPM5 30-667); experiment: ELISA, plate-coated rhesus monkey CDCP1 His Tag 0.5 ug/mL, four-parameter fit
T3 construct: also called Rhesus monkey CDCP1 antigen; not shown: His tag
T3 sequence: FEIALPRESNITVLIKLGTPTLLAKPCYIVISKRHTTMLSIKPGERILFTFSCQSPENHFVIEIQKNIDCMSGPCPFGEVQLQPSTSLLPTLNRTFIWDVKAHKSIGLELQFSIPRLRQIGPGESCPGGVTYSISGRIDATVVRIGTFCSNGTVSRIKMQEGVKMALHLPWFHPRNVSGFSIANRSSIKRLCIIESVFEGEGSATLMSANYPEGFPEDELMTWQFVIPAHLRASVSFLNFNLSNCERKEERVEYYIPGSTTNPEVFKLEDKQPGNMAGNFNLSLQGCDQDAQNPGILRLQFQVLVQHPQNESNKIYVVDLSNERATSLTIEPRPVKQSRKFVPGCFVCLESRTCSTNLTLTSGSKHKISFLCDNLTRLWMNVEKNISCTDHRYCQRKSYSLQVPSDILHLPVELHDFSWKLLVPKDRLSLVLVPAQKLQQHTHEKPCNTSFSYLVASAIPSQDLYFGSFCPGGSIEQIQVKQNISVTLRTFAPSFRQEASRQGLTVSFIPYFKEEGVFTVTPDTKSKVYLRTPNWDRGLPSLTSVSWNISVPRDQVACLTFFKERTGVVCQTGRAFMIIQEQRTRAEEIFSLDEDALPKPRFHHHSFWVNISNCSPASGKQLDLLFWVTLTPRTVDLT

- EC50 [2]: 0.00428 µg/mL
- Top [2]: 1.58 OD450
- bottom [2]: 0.0514 OD450
- EC50 [3]: 0.153 µg/mL
- EC50 [4]: 0.206 µg/mL
- EC50 [5]: 0.0958 µg/mL
- EC50 [6]: 0.0809 µg/mL
- Top [6]: 52900 MFI
- bottom [6]: 819 MFI
- EC50 [7]: 0.139 µg/mL
- EC50 [8]: 3.37 pM
- EC50 [9]: 4.05 pM
B1: MHAB10-16-14 (Fc fusion)
chain: QLQLVESGGGLVQPGGSLRLSCAASGSDVSANGMVWHRQAPGKGREWVAVISSSGSTNYADSVKGRFTISRDSDKNTMYLQMNSLRPEDTAVYYCGVAHYGQTYWGKGTLVTVSS[human IgG1 Fc with changes cut from this listing]
notes: Humanized nanobody-Fc fusion, second round
- EC50 (pM), endocytosis-mediated cell killing (Fab-ZAP, HCT116 cells) [1]: 21.7 pM
